The labels stand for the following.
T1: UNK ZnF1-3 (human, UniProt Q9C0B0 31-174)
T1 sequence: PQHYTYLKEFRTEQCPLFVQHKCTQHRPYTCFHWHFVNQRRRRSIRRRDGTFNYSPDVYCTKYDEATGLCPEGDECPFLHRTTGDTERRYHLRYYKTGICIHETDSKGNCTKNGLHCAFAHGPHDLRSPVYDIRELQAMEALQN

B1: chr7:151048522:151048523:+_ENSG00000013374_ENST00000566856|hu_mus|hu_hu_hu_mus_True|18_58 (ssRNA)
RNA: GGGAGUUCUACAGUCCGACGAUCCUGUUUCUUAUUUAUUACGAUCUUGAUGUAAUUUUCUUGAAAUCCGAAAGUUUCAGCUAUUUUACACCUCAGGUCUCUACCAGUGACAUGCAAUCGGGUCUCCAACAAGCUUUUCUUAUCCAACAGAGGAUUGAGCAUCA
B2: 205066520_205068233_1181_3pUTR_ENSG00000117222_ENST00000264515|human|control|control (ssRNA)
RNA: GGGAGUUCUACAGUCCGACGAUCCCCCUGUCUGCUCAGGCUCACUCUUAUCUUCAUCUUCAAUAUCAAACUCUGAUUCCCUUUCUUCGUAUUCUACAUUUUCAUCCAAUUCUUUGAAGUCUGGUGCAAAUGCACUCCAGUUUUCAACAGAGGAUUGAGCAUCA
B3: chr2:224824363:224824364:+_ENSG00000135900_ENST00000258383|hu_hu|motif|central (ssRNA)
RNA: GGGAGUUCUACAGUCCGACGAUCAGCUUCUUUCUCUAUCCCAAGUUGUUGGCGUUUGGCCUCCUCACUUUUAAUAUAGCAGCGGUUAACAAAUGCAGUUUUGAGAAGAUCUAAGGAAAAGUUUUCCUGUAACCGAUGUCCAAACAACAGAGGAUUGAGCAUCA
B4: chr14:78183846:78183847:+_ENSG00000119705_ENST00000557342|hu_hu|hu_hu_hu_mus_False|1_88 (ssRNA)
RNA: GGGAGUUCUACAGUCCGACGAUCUCUCAGAAAUCUUUCUUCAUCAGCAUCAUCAGAUCCGUGCAAAGCCUUUGCUCUUUGAGCUUGAACGUGGAUCUAUGGGAGGGAAAGCACUGUCAGAAAAGGUAAUUUUUUUUUCCGAAGCAACAGAGGAUUGAGCAUCA
B5: chr7:31081878:31081879:+_ENSMUSG00000013921_ENSMUST00000014065|mus_mus|FALSE|FALSE (ssRNA)
RNA: GGGAGUUCUACAGUCCGACGAUCGAUGGUGGUCUUCGGGUCAAACAGAAUUUCCUGGCACGCAGGGUCAUUGGGAUCGAAGAAGGUAAAAGCGUAGUCUUUGGGGAGCGGAGCAGGUGCUGAGGGGUGCACAACUGGCUUCUGCAACAGAGGAUUGAGCAUCA
B6: chr2:198351390:198351391:-_ENSG00000144381_ENST00000345042|hu_hu|hu_hu_hu_mus_False|28_28 (ssRNA)
RNA: GGGAGUUCUACAGUCCGACGAUCUCAUUCCCACCCUCCACAGAAAGGCUGCUUCUGAACUCUCAUGUGGUGACACAGCGCUACAGUCCUGAUGCUCACAGAACAGUAGUAAAAAUGCAGUGAUUUAAGUUGAAAGCAGGACACCAACAGAGGAUUGAGCAUCA
B7: chr5:137354059:137354060:-_ENSG00000031003_ENST00000033079|hu_hu|FALSE|FALSE (ssRNA)
RNA: GGGAGUUCUACAGUCCGACGAUCGUGAAUAUGUAAACUGCCAGGGAUAACAGGUUCAGGAAGUUCUUGAAGAAAAAAUCUAAGAAGGCUAAUAGCUGAGGGAACAUCUGCUUCCUUAACCAAAUCCACCUCUUCUCCGCUGUCCAACAGAGGAUUGAGCAUCA
B8: chr6:57672499:57672500:+_ENSMUSG00000062190_ENSMUST00000050077|mus_hu|motif|central (ssRNA)
RNA: GGGAGUUCUACAGUCCGACGAUCUCGGAGCAGGUAGGUUUGGUCACAUGUGACCCGGUACAACUGCAGGUACAAAAGGGCGGUGCCUGUCCAGCCAGUAUAAGCAGAGCAGUCAUGGGGAUCAGCUGUCUUCAGCCCUUCUUCCAACAGAGGAUUGAGCAUCA
B9: chr17:64801638:64801639:+_ENSG00000154229_ENST00000413366|hu_mus|hu_hu_hu_mus_False|98_98 (ssRNA)
RNA: GGGAGUUCUACAGUCCGACGAUCUAUAUAUAUAUAUAUAUACACACACAUAUAUAGUAAAACCCUAGUUAAACGUGUAAAGUAGCCAUUCAUUUUUAAAAUUACAUCUACAUUAAAAAAUUAAUAUAUCUGAUAGAGUGCCAGCAACAGAGGAUUGAGCAUCA
B10: chr1:50642785:50642786:+_ENSG00000162374_ENST00000371827|hu_mus|FALSE|FALSE (ssRNA)
RNA: GGGAGUUCUACAGUCCGACGAUCAGUGUUGAUGGCUUUCUCUGCAUCCUUUGGAUCAAUAUAGUUAACAAAUCCAUACCCUAAACUCUGUCCUGUGAUUUUGUCUCUCACGAGUUUGCAGGAUUCUAUUUCACCAAUGCUCCCCAACAGAGGAUUGAGCAUCA
B11: chrX:71549400:71549401:+_ENSMUSG00000019087_ENSMUST00000019231|mus_hu|mus_mus_mus_hu_False|28_108 (ssRNA)
RNA: GGGAGUUCUACAGUCCGACGAUCGCAAGGAAGAGGAGGAAGCUCUUCAGUCCAGUGCGCUGCAGGGUGGGAAAGCAACAACACGGACACCGUCCCACCCUCAACCCUCUCAGGUGUACAGGGUCACACAAUCUGGGUCAAAGACAACAGAGGAUUGAGCAUCA
B12: chr16:94690093:94690094:+_ENSMUSG00000040785_ENSMUST00000117648|mus_hu|mus_mus_mus_hu_True|28_38 (ssRNA)
RNA: GGGAGUUCUACAGUCCGACGAUCGGGCUGGGAUGACGGACACACAGCCUCGAUUCCAGGGGGAAAAAGUCUUAGUCGAUACUAAUUAAAAAGUGUUUUUAUAAUUGAUUACCAAAAUUACAUCUAUAAAAGAUGAAAAGCAAACAACAGAGGAUUGAGCAUCA
B13: 63782044_63782164_1043_ncRNA_ENSMUSG00000025962_ENSMUST00000128621|mouse|control|control (ssRNA)
RNA: GGGAGUUCUACAGUCCGACGAUCCAGAGAAGUCAGGUGUUACCUCCAAUUUCUUCUUAAGUGCAGAUGGUGCGUCUUUCCCAAUACAUUUCAUCACUGUUUGUAAGGUGAAGACAUGUUUUAUGUUCCAAACUUGCUGAUCAACAACAGAGGAUUGAGCAUCA
B14: chr15:83699029:83699030:-_ENSG00000064726_ENST00000261721|hu_mus|FALSE|FALSE (ssRNA)
RNA: GGGAGUUCUACAGUCCGACGAUCGCAUCGUGGCCGAUCAAUGUACUCUACUCGGGGUUUAGGAUUGACGGUAAAAUGAAGAAAGAGGUUUACCACUUCACGGUCUGACAAAAUUCCAGAUUGAGCAGGACCUGCUGCAAACUCCAACAGAGGAUUGAGCAUCA

The list shows a part of the results.

The target in this test is T1, UNK ZnF1-3. As to the kind of experiment: nsRBNS (natural sequence RNA bind-n-seq); RBNS binding buffer (assumed for nsRBNS): 25 mM Tris pH 7.5, 150 mM KCl, 3 mM MgCl2, 0.01% Triton X-100, 500 ug/ml BSA, 20 U/ml SUPERase-In, 4 C; UNK is unkempt and MSI1 is Musashi-1; names of the RNAs are library labels; protein concentration not given here; high values mean tight binding.
With B1, the binding signal worked out at 0.65 enrichment R.

Take B2: the binding signal turned out to be 0.497 enrichment R.

B3 yielded a binding signal of 0.992 enrichment R.

B4 had a binding signal of 1.4 enrichment R.

Take B5: the binding signal was found to be 1.65 enrichment R.

Molecule B6 registered a binding signal of 1.54 enrichment R.

B7 returned a binding signal of 1.17 enrichment R.

Take B8: the binding signal stood at 1.03 enrichment R.

B9 had a binding signal of 2.42 enrichment R.

The molecule B10 returned a binding signal of 0.478 enrichment R.

For the molecule B11, the binding signal came out at 0.944 enrichment R.

On to B12, for which the binding signal was found to be 1.26 enrichment R.

On to B13, for which the binding signal amounted to 0.609 enrichment R.

Consider B14, for which the binding signal worked out at 1.1 enrichment R.

The values above are taken from paper PMC12136788.
